Laboratory results: PubChem BioAssay AID445 (National Center for Advancing Translational Sciences (NCATS), 2006)
Out of some 110,000 compounds screened, about 40 (0.04%) were called active. The inconclusive results got no clear call from the source; some entries with a clear call stand among them for comparison. The call rests on the fitted dose curve; in most records, active means well fitted curve in the direction sought with a large enough effect in the signal ratio (not every such curve was filed as active); inconclusive means small, poorly fitted or top-dose-only effect, or a change in a side signal; inactive means flat fitted curve, though single readings scatter; the % refers to the signal ratio.

Assay: IkB Signaling;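 further: 0% = basal untreated cells and 100% = reference inhibitor full response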
Details: ABC-DLBCL IkBa-CBG/CBR dual luciferase ratio (green luciferase fused to IkBa over red control in OCI-Ly3 lymphoma cells), 4 h; IkBa stabilization activation: at 57.1 µM (top of the series), scaled: untreated 0%, proteasome inhibitor 100% unless noted
Summary of the method: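 In this assay, an IκBα–CBG68 fusion accumulates when IKK-driven degradation is blocked; native CBR normalizes for cell number. OCI-Ly3 cells were treated 4 h with compound and doxycycline, then green and red light read after Chroma-Glo addition.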

Row | Compound | IkBa stabilization activation
1 | O=C(/C=C/c1ccc(O)c(O)c1)O[C@@H](C(=O)O)[C@@H](OC(=O)/C=C/c1ccc(O)c(O)c1)C(=O)O | inactive: -2.19%
2 | Cc1ccc(-c2cc(C(F)(F)F)c(C#N)c(SCC(=O)Nc3ccccc3F)n2)cc1 | inconclusive: 10.3% [signal inhibitor]
3 | CCN(c1ncnc2c1cnn2-c1cccc(Cl)c1)C1CCCCC1 | inactive: -1.4%
4 | COc1cccc(CNC(=O)CN2C(=O)CSc3ccc(S(=O)(=O)N4CCCC4)cc32)c1 | inconclusive: -1.26% [signal inhibitor]
5 | CCCN(CCC)CCCNC(=O)c1cn(CC)c2ccc(S(=O)(=O)N3CCc4ccccc4C3)cc2c1=O | inconclusive: -1.61% [signal inhibitor]
6 | NC(N)=N/N=C\c1ccc(O)c(C(=O)O)c1 | inactive: 1.29% [at 11.4 µM, scaled: untreated 0%, proteasome inhibitor 100%]
7 | CN(C)CCCN1c2ccccc2Sc2ccccc21 | inactive
8 | N#CCc1nc(CSc2nc3ccccc3s2)cs1 | inactive: 0.541%
9 | COCCCNc1nc2ccccc2nc1NS(=O)(=O)c1cccs1 | inconclusive: 5.49% [signal inhibitor]
10 | CC(C)c1ccc(NC(=O)C2CCCN(S(=O)(=O)c3ccc4[nH]c(=O)ccc4c3)C2)cc1 (configuration not stated) | inactive: -2.19%
11 | O=[N+]([O-])c1ccc2c(c1)Cc1cc(N=Cc3ccc4c(c3)OCO4)ccc1-2 | inactive: 0.449% [at 11.4 µM, scaled: untreated 0%, proteasome inhibitor 100%]
12 | Cc1ccc(Nc2c(-c3ccc(N4CCOCC4)cc3)nc3ncccn23)cc1C | inconclusive: 3.8% [signal inhibitor]
13 | CCOC(=O)c1ccc2c(c1)N(CC(=O)Nc1ccc(CC)cc1)C(=O)c1ccccc1S2 | inconclusive: 4.59% [signal inhibitor]
14 | CCN(c1ccc(C)cc1C)S(=O)(=O)c1nnc(NC(=O)c2ccccc2OC)s1 | inconclusive: 1.89% [signal inhibitor]
15 | CCOC(=O)c1oc2ccc(S(=O)(=O)n3nc(-c4cc(OCC)c(OCC)c(OCC)c4)cc3N)cc2c1C | inconclusive: -1.7% [signal inhibitor]
16 | CCOC(=O)c1ccc(NC(=O)CC2C(=O)N(c3ccccc3)C(=O)N2C2CCCCC2)cc1 (configuration not stated) | inconclusive: -0.928% [signal inhibitor]
17 | Cc1ccc(C(=O)N2CCCC(c3nc4c(nnn4Cc4ccccc4)c(=O)[nH]3)C2)cc1 (configuration not stated) | inactive: -0.721%
18 | O=C(CSc1oc(-c2ccco2)nc1S(=O)(=O)c1ccccc1)c1ccc(Cl)cc1 | inconclusive: 2.59% [signal inhibitor]
19 | Cc1sc2nc3c4ccccc4c(NCc4ccco4)nn3c(=O)c2c1C | inconclusive: 6.93%
20 | CN(C)C(=O)c1ccc(-c2nc(-n3ccnc3)c3ccccc3n2)cc1 | inactive: -0.269% [at 11.4 µM, scaled: untreated 0%, proteasome inhibitor 100%]
21 | c1cncc(CNc2nc(-c3ccoc3)nc3ccccc23)c1 | inactive: -1.87% [at 11.4 µM, scaled: untreated 0%, proteasome inhibitor 100%]

Row | Compound | IkBa stabilization activation
22 | CS(=O)(=O)Nc1cccc(-c2nc(Nc3ccncc3)c3ccccc3n2)c1 | inactive: -3.94% [at 11.4 µM, scaled: untreated 0%, proteasome inhibitor 100%]
23 | COC(=O)c1sccc1NC(=O)CSc1nnnn1-c1ccccc1F | inconclusive: 11.5% [signal inhibitor]
24 | CCOC(=O)c1c(-c2ccc(OC)c(OC)c2)csc1NC(=O)c1ccc(F)cc1 | inconclusive: 5.5% [signal inhibitor]
25 | COc1cccc(N2C(=O)CSC23C(=O)N(CC(=O)NCc2ccc(C)cc2)c2ccccc23)c1 (configuration not stated) | inconclusive: 10.1% [signal inhibitor]
26 | CSC1=NC2(CCN(C(=O)NC3CCCCC3)CC2)N=C1c1ccc(C(C)(C)C)cc1 | inconclusive: 1.55% [signal inhibitor]
27 | CCc1ccc2occ(CC(=O)Nc3sc4c(c3C(=O)OC)CCC4)c2c1 | inconclusive: 1.66% [signal inhibitor]
28 | COc1ccc(-n2c(=O)c(C)nc3cnc(Oc4ccccc4)nc32)cc1 | inactive: 1.12% [at 11.4 µM, scaled: untreated 0%, proteasome inhibitor 100%]
29 | CCOc1ccc(NC(=O)CC2C(=O)N(c3ccc(C)cc3)C(=O)N2Cc2ccc(OC)cc2)cc1 (configuration not stated) | inactive: 2.19%
30 | O=C(NCS(=O)(=O)c1ccccc1)c1ccccc1 | inconclusive: 8.94% [signal activator]
31 | CCC(=O)N1CCc2cc(Br)cc(S(=O)(=O)N(CC)Cc3ccccc3)c21 | inconclusive: 4.68% [signal inhibitor]
32 | O=C(CSc1nnc(-c2ccccc2)n1Cc1ccco1)Nc1ccc2c(c1)OCCO2 | inconclusive: 0.977% [signal inhibitor]
33 | Cc1cccc(N2CCN(c3ncnc4onc(C)c34)CC2C)c1 (configuration not stated) | inconclusive: -8.56% [signal inhibitor]
34 | Cc1cnc(NC(=O)COc2ccccc2Cl)s1 | inactive: 0.302%
35 | CCCCN(C)S(=O)(=O)c1cc(-c2cc(C)no2)ccc1C | inactive: -1.18%
36 | CCOC(=O)CNC(=O)CSc1nc(C)cc(C)c1C#N | inactive: 0.754%
37 | CCC(=O)Nc1cccc(-c2nc3ccccc3o2)c1 | inconclusive: 3.32% [signal inhibitor]
38 | CCOC(=O)c1ccc(NC(=O)c2c(NCc3cc(OC)c(OC)cc3OC)sc3c2CCCC3)cc1 | inconclusive: -0.208% [signal inhibitor]
39 | Cn1c(=O)oc2cc(S(=O)(=O)N3CCCC(C(=O)N4CCN(c5cccc(Cl)c5)CC4)C3)ccc21 (configuration not stated) | inconclusive: 1.72% [signal inhibitor]
40 | O=C(CC1(O)C(=O)N(Cc2ccccc2)c2ccc(Br)cc21)c1ccccc1 (configuration not stated) | inconclusive: 2.91% [signal inhibitor]
41 | Cc1ccccc1NC(=O)N1C2CCCC1CC(NC(=O)C1CC1)C2 (configuration not stated) | inactive: -0.493%
42 | NS(=O)(=O)c1cc(C(=O)O)cc(N2CCCC2)c1Oc1ccccc1 | inconclusive: 4.91% [signal activator] [at 25.6 µM, scaled: untreated 0%, proteasome inhibitor 100%]
